Data taken from the supplement of paper PMC4604168 (melanoma cell lines).
The other results are listed elsewhere or left out. Single values are uncertain, as repeats are few or missing.

Experiments:
Assay in all cases: cell count relative to DMSO control; melanoma cells; higher = more viable cells
Settings in all cases: library dose: low library concentration; 72 h
MZ2-MEL = test system: MZ2-MEL
MeWo = test system: MeWo
RPMI7951 = test system: RPMI7951
RVH-421 = test system: RVH-421
SkMel28 = test system: SkMel28
SkMel30 = test system: SkMel30
SkMel5 = test system: SkMel5
UACC257 = test system: UACC257
UACC62 = test system: UACC62
WM115 = test system: WM115
WM1716 = test system: WM1716
WM1745 = test system: WM1745
WM3526 = test system: WM3526
WM3619 = test system: WM3619
WM451Lu = test system: WM451Lu
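Note: cell number obtained by counting DAPI-stained nuclei in high-throughput microscope images with image analysis software, screen run in 1,536-well plates.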

Row | Compound | cell count (MZ2-MEL) | cell count (MeWo) | cell count (RPMI7951) | cell count (RVH-421) | cell count (SkMel28) | cell count (SkMel30) | cell count (SkMel5) | cell count (UACC257) | cell count (UACC62) | cell count (WM115) | cell count (WM1716) | cell count (WM1745) | cell count (WM3526) | cell count (WM3619) | cell count (WM451Lu)
1 | COc1cc2c(Oc3ccc4[nH]c(C)cc4c3F)ncnc2cc1OCCCN1CCCC1 [cediranib] + C/C(O)=C(\C#N)C(=O)Nc1cc(Br)ccc1Br [LFM-A13] (first compound 0.4 µM, partner dose 2 µM) | 97.4% | 102% | 93.3% | 102% | 87.4% | 73.8% | 105% | 122% | 93.5% | 114% | 102% | 99.1% | 76.5% | 117% | 98.3%
2 | O=C(Nc1ccccc1)c1cc([N+](=O)[O-])ccc1Cl + C/C(O)=C(\C#N)C(=O)Nc1cc(Br)ccc1Br [LFM-A13] (first compound 2 µM, partner dose 2 µM) | 90.4% | 102% | 87.3% | 109% | 85.7% | 83.7% | 118% | 114% | 90.9% | 96.9% | 118% | 85.6% | 98.4% | 119% | 98.3%
3 | C/C(O)=C(\C#N)C(=O)Nc1cc(Br)ccc1Br + c1cc(-c2cnn3cc(-c4ccc(OCCN5CCCCC5)cc4)cnc23)ccn1 [Dorsomorphin] (first compound 2 µM, partner dose 0.4 µM) | 96.6% | 94.3% | 87.9% | 85.7% | 99.2% | 91.7% | 88.8% | 82.8% | 75.1% | 95.9% | 85.4% | 90.5% | 89.1% | 132% | 82.1%
4 | C/C(O)=C(\C#N)C(=O)Nc1cc(Br)ccc1Br + Oc1nc(-c2ccc(C(F)(F)F)cc2)nc2c1CSCC2 [XAV939] (first compound 2 µM, partner dose 2 µM) | 92% | 97.3% | 89.4% | 90.9% | 81% | 112% | 75.1% | 91.7% | 88.9% | 93.1% | 56.4% | 83.2% | 104% | 98.7% | 65.8%
5 | CN(NC(=O)CC(=O)NN(C)C(=S)c1ccccc1)C(=S)c1ccccc1 + O=C(Oc1ccc([N+](=O)[O-])cc1)N1CCC(C(O)(c2ccc3c(c2)OCO3)c2ccc3c(c2)OCO3)CC1 [JZL184] (first compound 0.006 µM, partner dose 1 µM) | 102% | 82.2% | 87.6% | 94.8% | 83.8% | 104% | 81.9% | 87.4% | 88.1% | 85.9% | 79.3% | 42.6% | 97.4% | 94.3% | 166%
6 | Cn1cncc1[C@@](N)(c1ccc(Cl)cc1)c1ccc2c(c1)c(-c1cccc(Cl)c1)cc(=O)n2C [tipifarnib] + Cc1cc(SCc2sc(-c3ccc(C(F)(F)F)c(F)c3)nc2C)ccc1OCC(=O)O [GW0742] (first compound 0.01 µM, partner dose 2 µM) | 112% | 81% | 97.9% | 109% | 88% | 108% | 105% | 101% | 82.5% | 100% | 93.7% | 98.4% | 86.2% | 101% | 109%
7 | CO[C@@H]1[C@H](N(C)C(=O)c2ccccc2)C[C@H]2O[C@]1(C)n1c3ccccc3c3c4c(c5c6ccccc6n2c5c31)C(=O)NC4 [Midostaurin] + O=C(Oc1ccc([N+](=O)[O-])cc1)N1CCC(C(O)(c2ccc3c(c2)OCO3)c2ccc3c(c2)OCO3)CC1 [JZL184] (first compound 0.08 µM, partner dose 1 µM) | 92.7% | 99.5% | 105% | 144% | 101% | 93.1% | 106% | 113% | 81.3% | 102% | 99% | 103% | 112% | 81.6% | 96.5%
8 | Cc1cc(SCc2sc(-c3ccc(C(F)(F)F)c(F)c3)nc2C)ccc1OCC(=O)O + Oc1cc(-c2nc(-c3ccccc3)[nH]c2-c2ccncc2)ccc1Cl [L779450] (first compound 2 µM, partner dose 0.2 µM) | 80.1% | 102% | 115% | 97.6% | 73.2% | 89.2% | 94.1% | 75.2% | 68.2% | 84.6% | 117% | 86.3% | 72.4% | 114% | 94.9%
9 | CN(C)S(=O)(=O)c1ccc2c(c1)/C(=C/c1cc3c([nH]1)CCCC3)C(=O)N2 + Cc1cc(SCc2sc(-c3ccc(C(F)(F)F)c(F)c3)nc2C)ccc1OCC(=O)O [GW0742] (first compound 0.4 µM, partner dose 2 µM) | 105% | 95.2% | 102% | 107% | 88.6% | 94.8% | 87.6% | 88.2% | 89% | 84.3% | 108% | 69.9% | 96.6% | 101% | 116%
